At least one read-out could not be matched to a standard name with certainty.
target: DYRK1A kinase (Homo sapiens, UniProt Q13627); assay: DYRK1A kinase activity assay (Z-lyte FRET); assay type: biochemical; details: Table 5; recombinant DYRK1A, Ser/Thr 18 peptide Z-lyte, 30 μM ATP, 11-point dose-response from 10 μM

Point of comparison: `Cc1n[nH]c2ccc(-c3cncc(NN4CCNCC4)n3)cc12` [compound 41], EC50 9 nM. Against it:
- Fc1cccc(-c2cncc3[nH]c(-c4n[nH]c5ccc(-c6cncc(CN7CCC(F)(F)C7)c6)cc45)nc23)c1 [compound 142] — 8.9-fold higher, 80 nM
- CCCC(=O)Nc1cncc(-c2ccc3[nH]nc(-c4nc5c(-c6ccsc6)cncc5[nH]4)c3c2)c1 [compound 246] — within 1.5-fold, 8 nM
- CC(=O)Nc1cncc(-c2ccc3[nH]nc(-c4cc5c(N6CCCCC6)nccc5[nH]4)c3c2)c1 [compound 457] — 1.8-fold lower, 5 nM
- CN(C)CCNc1cc(F)cc(-c2ccnc3[nH]c(-c4n[nH]c5ccc(-c6cncc(CN7CCCCC7)c6)nc45)cc23)c1 [compound 514] — 4.4-fold higher, 40 nM
- Oc1cncc(-c2ccc3[nH]nc(-c4nc5c(-c6cccc(F)c6)cccc5[nH]4)c3c2)c1 [compound 143] — within 1.5-fold, 12 nM
- CN(C)Cc1cncc(-c2cnc3[nH]nc(-c4cc5c(-c6cccc(F)c6)cncc5[nH]4)c3c2)c1 [compound 310] — 10-fold higher, 91 nM
- O=C(Nc1c[nH]nc1C(=O)Nc1ccc(OCCN2CCCC2)cc1)c1cccnc1 [compound 3] — 3-fold higher, 27 nM
- O=C(Nc1nc2c(-c3cccc(F)c3)cncc2[nH]1)c1n[nH]c2ccc(-c3cccnc3)cc12 [compound 119] — within 1.5-fold, 12 nM
- CCNCc1cncc(-c2cnc3[nH]nc(-c4cc5c(-c6cc(F)cc(CNS(C)(=O)=O)c6)nccc5[nH]4)c3c2)c1 [compound 532] — 3.7-fold higher, 33 nM
- NC1CN(c2cncc(-c3ccc4[nH]nc(-c5nc6ccncc6[nH]5)c4c3)c2)C1 [compound 205] — 3-fold lower, 3 nM
- O=C(Nc1ccc(C2CCC(F)(F)C2)nc1)c1n[nH]cc1C#Cc1cccnc1 (stereo not shown) [compound 27] — 2.3-fold higher, 21 nM
- CN(C)CCNc1cc(F)cc(-c2ccnc3[nH]c(-c4n[nH]c5cnc(-c6cncc(NC(=O)C(C)(C)C)c6)cc45)cc23)c1 [compound 513] — 5-fold higher, 45 nM

— patent US20230000842A1, “METHODS OF TREATING CARTILAGE DISORDERS THROUGH INHIBITION OF CLK AND DYRK” (SAMUMED, LLC, priority 2019, published 2023)
